Laboratory results published in PubChem BioAssay (Tox21).
“And” between values parts separate entries of the source, which are not always exact repeats. Identical values can stand only once. The inconclusive results got no clear call from the source; some entries with a clear call stand among them for comparison. For part of these data: Potencies beside an inconclusive call are fits to weak or partial responses and may not hold up. Where a structure was tested more than once in an assay, its records may differ in their call. The source made the active and inactive calls. Unless noted, calls follow the shape of the dose curve; as a rule, active = well fitted curve in the direction sought with a large enough effect in the repeat runs; inconclusive = weak or mixed curves; inactive = no such curve, though single readings can be large; an effect the other way counts as inactive or inconclusive.

Experiments:
[1] = qHTS assay to identify small molecule antagonists of the TGF-beta/Smad signaling pathway (AID 1346924; active = well fitted inhibition curve with a large enough effect in the signal ratio in the repeat runs, not every such curve was filed as active; inconclusive = weak or mixed curves; the % refers to the signal ratio); settings: SBE-bla HEK293T, TGF-beta/Smad reporter, beta-lactamase ratio; activity, negative = inhibition: at 76.8 µM (top of the series) unless noted
Procedure, shortened: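 Read-out was FRET-substrate fluorescence (405 nm excitation; 460 and 530 nm emission) after 2 h at room temperature. Before that, cells carrying a Smad-binding-element beta-lactamase reporter in HEK 293T had been stimulated 5 h at 37 C with TGF-beta1 (0.25 ng/mL addition solution) in the presence of test compound.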

[2] = Human pregnane X receptor (PXR) small molecule agonists, qHTS cell viability counter screen (AID 1346977); also: nearly all actives have a fitted effect of over 50% in size
Procedure, shortened: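 Cytotoxicity counter screen run in the same wells as the PXR luciferase assay, using PXR-Luc HepG2 cells in charcoal-stripped serum medium. Viability: CellTiter-Fluor fluorescence after 24hr compound treatment.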

[3] = Caspase-3/7 induction in HepG2 cells by small molecules, qHTS assay (AID 1346978); also: nearly all actives have a fitted effect of over 15% in size
Procedure, shortened: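 Caspase-3/7 induction was measured by Caspase-Glo 3/7 luminescence (30 min, room temperature) after a 17 hr compound exposure of wild-type HepG2 cells seeded at 2,000 per well and pre-incubated 5 hr.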

[4] = Caspase-3/7 induction in CHO-K1 cells by small molecules, qHTS cell viability counter screen (AID 1346979); also: nearly all actives have a fitted effect of over 35% in size
Procedure, shortened: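 Cytotoxicity counter screen run in parallel with the caspase-3/7 assay: CHO-K1 cells, 16hr compound treatment at 37C, then CellTiter-Fluor for 1hr before fluorescence reading.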

[5] = Caspase-3/7 induction in HepG2 cells by small molecules, qHTS cell viability counter screen (AID 1346981); also: nearly all actives have a fitted effect of over 30% in size
Procedure, shortened: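 Treatment of HepG2 cells with DMSO-delivered compounds ran 16 hr at 37 C following a 5-hr pre-incubation of 2,000 cells/well. CellTiter-Fluor fluorescence, read after 1 hr, served as the viability measure in a qHTS format.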

[6] = target: Cytochrome P450 2D6 (Homo sapiens) (UniProt P10635); assay: Cytochrome P450 Family 2 Subfamily D Member 6 (CYP2D6) small molecule antagonists: luciferase reporter qHTS assay (AID 1671196); also: nearly all actives have a fitted effect of over 50% in size
Chain of UniProt P10635 (P10635 whole entry, looked up): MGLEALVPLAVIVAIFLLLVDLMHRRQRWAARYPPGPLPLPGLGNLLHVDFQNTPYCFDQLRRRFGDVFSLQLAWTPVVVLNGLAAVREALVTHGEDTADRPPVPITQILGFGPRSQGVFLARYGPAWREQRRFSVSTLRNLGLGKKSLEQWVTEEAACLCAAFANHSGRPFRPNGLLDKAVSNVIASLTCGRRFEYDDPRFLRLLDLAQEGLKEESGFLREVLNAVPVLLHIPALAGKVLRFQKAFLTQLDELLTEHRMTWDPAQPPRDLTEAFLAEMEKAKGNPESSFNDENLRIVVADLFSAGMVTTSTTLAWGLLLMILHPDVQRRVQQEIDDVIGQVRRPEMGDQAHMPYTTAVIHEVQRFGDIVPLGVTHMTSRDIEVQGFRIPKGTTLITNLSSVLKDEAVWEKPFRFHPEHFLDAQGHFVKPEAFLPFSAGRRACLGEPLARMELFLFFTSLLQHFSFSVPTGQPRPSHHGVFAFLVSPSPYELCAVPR
Procedure, shortened: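 Chemicals tested for interference with CYP2D6 activity; proluciferin substrate, NADPH regeneration, 1 h at room temperature, luminescent detection.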

[7] = target: Cytochrome P450 2C19 (Homo sapiens) (UniProt P33261); assay: Cytochrome P450 Family 2 Subfamily C Member 19 (CYP2C19) small molecule antagonists: luciferase reporter qHTS assay (AID 1671197); also: nearly all actives have a fitted effect of over 65% in size
Chain of UniProt P33261 (P33261 whole entry, looked up): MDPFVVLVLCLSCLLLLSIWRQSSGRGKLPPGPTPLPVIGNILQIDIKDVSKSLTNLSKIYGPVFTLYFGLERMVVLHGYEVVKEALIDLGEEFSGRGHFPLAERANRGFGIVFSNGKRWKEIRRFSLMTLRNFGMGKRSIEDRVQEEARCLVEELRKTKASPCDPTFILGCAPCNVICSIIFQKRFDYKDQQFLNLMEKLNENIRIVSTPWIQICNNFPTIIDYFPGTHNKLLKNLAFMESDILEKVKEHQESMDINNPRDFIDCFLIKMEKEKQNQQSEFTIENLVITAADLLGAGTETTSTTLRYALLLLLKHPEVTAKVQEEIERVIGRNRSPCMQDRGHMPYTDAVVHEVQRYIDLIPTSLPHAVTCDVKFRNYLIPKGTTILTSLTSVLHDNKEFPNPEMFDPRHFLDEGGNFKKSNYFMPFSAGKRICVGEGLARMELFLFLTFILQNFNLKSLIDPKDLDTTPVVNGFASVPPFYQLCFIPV
Procedure, shortened: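 CYP2C19 P450-Glo, 1536-well qHTS. Cpd + enzyme/proluciferin substrate 10 min RT; + NADPH regen, 37C 1 h; stop with luciferin detection reagent, 20 min RT, luminescence (RLU). Pos ctrl ketoconazole.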

[8] = target: Cytochrome P450 1A2 (Homo sapiens) (UniProt P05177); assay: Cytochrome P450 Family 1 Subfamily A Member 2 (CYP1A2) small molecule antagonists: luciferase reporter qHTS assay (AID 1671199); also: nearly all actives have a fitted effect of over 50% in size
Chain of UniProt P05177 (P05177 whole entry, looked up): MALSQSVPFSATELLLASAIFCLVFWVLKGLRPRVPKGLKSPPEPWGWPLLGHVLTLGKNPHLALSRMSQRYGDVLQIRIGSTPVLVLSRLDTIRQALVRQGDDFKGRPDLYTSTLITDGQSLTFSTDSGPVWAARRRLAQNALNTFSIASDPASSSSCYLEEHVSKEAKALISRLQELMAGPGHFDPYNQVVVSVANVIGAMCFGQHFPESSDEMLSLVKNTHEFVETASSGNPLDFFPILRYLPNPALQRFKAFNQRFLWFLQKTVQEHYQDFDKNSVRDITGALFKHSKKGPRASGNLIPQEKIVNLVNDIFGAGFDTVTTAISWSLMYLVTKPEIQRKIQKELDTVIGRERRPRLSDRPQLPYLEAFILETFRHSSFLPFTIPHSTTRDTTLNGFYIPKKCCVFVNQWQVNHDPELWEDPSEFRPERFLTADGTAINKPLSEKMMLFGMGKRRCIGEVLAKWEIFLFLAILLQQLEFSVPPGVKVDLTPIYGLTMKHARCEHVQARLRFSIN
Procedure, shortened: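 Read-out is luminescence from luciferin detection reagent (20 min) proportional to CYP1A2 activity; compounds in DMSO preincubated 10 min with enzyme and proluciferin substrate, then NADPH regeneration solution, 1 h, room temperature.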

[9] = Caspase-3/7 induction in CHO-K1 cells by small molecules, qHTS assay (AID 1346980); also: nearly all actives have a fitted effect of over 15% in size
Procedure, shortened: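 Luminescent Caspase-Glo 3/7 read (30min, room temperature) quantified apoptosis induction. Cells were wild-type CHO-K1, treated with compound for 17hr at 37 C and 5% CO2.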

[10] = target: Nuclear receptor subfamily 1 group I member 2 (Homo sapiens) (UniProt O75469); assay: Human pregnane X receptor (PXR) small molecule agonists, qHTS assay (AID 1346982); also: nearly all actives have a fitted effect of over 35% in size; as to activation: % is scaled to controls: 0 for no effect and ±100 for the full control effect
Chain of UniProt O75469 (O75469 whole entry, looked up): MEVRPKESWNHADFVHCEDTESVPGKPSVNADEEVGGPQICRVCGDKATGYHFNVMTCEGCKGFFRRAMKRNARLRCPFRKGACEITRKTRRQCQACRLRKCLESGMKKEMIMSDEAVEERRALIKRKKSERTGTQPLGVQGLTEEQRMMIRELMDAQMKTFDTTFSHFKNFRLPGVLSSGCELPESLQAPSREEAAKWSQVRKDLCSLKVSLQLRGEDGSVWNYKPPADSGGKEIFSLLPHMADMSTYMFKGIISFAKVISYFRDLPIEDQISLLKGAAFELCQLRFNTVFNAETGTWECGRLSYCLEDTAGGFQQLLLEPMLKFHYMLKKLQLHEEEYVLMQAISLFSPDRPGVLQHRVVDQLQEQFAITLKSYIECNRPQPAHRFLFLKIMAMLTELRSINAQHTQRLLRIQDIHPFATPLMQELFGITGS
Procedure, shortened: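 Stable HepG2 line reporting PXR-mediated CYP3A4 expression via luciferase. Treatment: 24 hr with compounds in DMSO at 37 C. Detection: ONE-Glo luminescence.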

[11] = target: Nuclear receptor subfamily 1 group I member 2 (Rattus norvegicus) (UniProt Q9R1A7); assay: Rat pregnane X receptor (rPXR) activation by small molecules, qHTS assay (AID 1346983); settings: rPXR luciferase reporter cells, One-Glo luminescence, 24 h; max activation: stronger effect = higher value; also: nearly all actives have a fitted effect of over 20% in size
Chain of UniProt Q9R1A7 (Q9R1A7 whole entry, looked up): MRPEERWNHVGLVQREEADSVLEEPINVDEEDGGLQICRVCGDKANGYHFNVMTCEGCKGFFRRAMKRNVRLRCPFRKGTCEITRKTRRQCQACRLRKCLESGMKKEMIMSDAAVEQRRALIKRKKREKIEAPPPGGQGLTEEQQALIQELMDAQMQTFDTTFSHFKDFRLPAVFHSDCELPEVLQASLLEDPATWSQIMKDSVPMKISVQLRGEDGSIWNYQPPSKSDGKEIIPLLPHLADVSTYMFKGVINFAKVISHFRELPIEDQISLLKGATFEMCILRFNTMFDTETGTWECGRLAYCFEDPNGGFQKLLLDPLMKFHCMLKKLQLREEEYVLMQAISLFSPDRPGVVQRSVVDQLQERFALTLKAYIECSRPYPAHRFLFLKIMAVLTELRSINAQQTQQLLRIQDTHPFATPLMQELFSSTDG
Procedure, shortened: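 Luminescent readout (One-Glo luciferase, 30 min room temperature) followed 24 hr compound treatment at 37 C of rPXR cells plated 2,000 per well and preincubated 5hr; qHTS format with compounds delivered in DMSO.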

[12] = target: Nuclear receptor subfamily 1 group I member 2 (Homo sapiens) (UniProt O75469); assay: CYP3A4 induction through human pregnane X receptor (PXR) by small molecules, qHTS assay (AID 1346984); also: nearly all actives have a fitted effect of over 40% in size
Procedure, shortened: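 After 24 h at 37C with compound, DPX-2 cells (HepG2, co-transfected PXR response element and CYP3A4 promoter-luciferase) got 3uM final P450-Glo Luciferin-IPA for 3 h; One-Glo luminescence followed.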

[13] = target: Cytochrome P450 2C9 (Homo sapiens) (UniProt P11712); assay: Cytochrome P450 Family 2 Subfamily C Member 9 (CYP2C9) small molecule antagonists: luciferase reporter qHTS assay (AID 1671198); also: nearly all actives have a fitted effect of over 50% in size
Chain of UniProt P11712 (P11712 whole entry, looked up): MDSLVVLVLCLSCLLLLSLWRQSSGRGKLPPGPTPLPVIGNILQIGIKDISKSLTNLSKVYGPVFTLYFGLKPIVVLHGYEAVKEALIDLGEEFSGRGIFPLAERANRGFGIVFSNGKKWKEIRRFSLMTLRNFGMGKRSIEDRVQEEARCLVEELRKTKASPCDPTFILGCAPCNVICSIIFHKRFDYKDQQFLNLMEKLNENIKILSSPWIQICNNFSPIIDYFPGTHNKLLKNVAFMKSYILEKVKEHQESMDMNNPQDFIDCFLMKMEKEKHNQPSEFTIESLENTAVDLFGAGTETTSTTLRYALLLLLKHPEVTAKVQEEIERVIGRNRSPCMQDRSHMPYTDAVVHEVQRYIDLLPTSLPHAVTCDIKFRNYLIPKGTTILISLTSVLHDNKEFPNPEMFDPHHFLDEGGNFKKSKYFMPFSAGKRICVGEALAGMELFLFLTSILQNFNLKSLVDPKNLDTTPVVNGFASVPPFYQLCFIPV
Procedure, shortened: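 Enzyme-substrate mix preincubated with compound 10 min at room temperature; reaction started with NADPH regeneration solution, 1 h 37C. Luminescent luciferin product read after 20 min detection reagent.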

[14] = target: Voltage-gated inwardly rectifying potassium channel KCNH2 (Homo sapiens) (UniProt Q12809); assay: Human Ether-a-go-go-Related Gene (hERG) channel small molecule antagonists: fluorescence cell-based qHTS assay (AID 1671200); also: nearly all actives have a fitted effect of over 50% in size
Chain of UniProt Q12809 (Q12809 whole entry, looked up): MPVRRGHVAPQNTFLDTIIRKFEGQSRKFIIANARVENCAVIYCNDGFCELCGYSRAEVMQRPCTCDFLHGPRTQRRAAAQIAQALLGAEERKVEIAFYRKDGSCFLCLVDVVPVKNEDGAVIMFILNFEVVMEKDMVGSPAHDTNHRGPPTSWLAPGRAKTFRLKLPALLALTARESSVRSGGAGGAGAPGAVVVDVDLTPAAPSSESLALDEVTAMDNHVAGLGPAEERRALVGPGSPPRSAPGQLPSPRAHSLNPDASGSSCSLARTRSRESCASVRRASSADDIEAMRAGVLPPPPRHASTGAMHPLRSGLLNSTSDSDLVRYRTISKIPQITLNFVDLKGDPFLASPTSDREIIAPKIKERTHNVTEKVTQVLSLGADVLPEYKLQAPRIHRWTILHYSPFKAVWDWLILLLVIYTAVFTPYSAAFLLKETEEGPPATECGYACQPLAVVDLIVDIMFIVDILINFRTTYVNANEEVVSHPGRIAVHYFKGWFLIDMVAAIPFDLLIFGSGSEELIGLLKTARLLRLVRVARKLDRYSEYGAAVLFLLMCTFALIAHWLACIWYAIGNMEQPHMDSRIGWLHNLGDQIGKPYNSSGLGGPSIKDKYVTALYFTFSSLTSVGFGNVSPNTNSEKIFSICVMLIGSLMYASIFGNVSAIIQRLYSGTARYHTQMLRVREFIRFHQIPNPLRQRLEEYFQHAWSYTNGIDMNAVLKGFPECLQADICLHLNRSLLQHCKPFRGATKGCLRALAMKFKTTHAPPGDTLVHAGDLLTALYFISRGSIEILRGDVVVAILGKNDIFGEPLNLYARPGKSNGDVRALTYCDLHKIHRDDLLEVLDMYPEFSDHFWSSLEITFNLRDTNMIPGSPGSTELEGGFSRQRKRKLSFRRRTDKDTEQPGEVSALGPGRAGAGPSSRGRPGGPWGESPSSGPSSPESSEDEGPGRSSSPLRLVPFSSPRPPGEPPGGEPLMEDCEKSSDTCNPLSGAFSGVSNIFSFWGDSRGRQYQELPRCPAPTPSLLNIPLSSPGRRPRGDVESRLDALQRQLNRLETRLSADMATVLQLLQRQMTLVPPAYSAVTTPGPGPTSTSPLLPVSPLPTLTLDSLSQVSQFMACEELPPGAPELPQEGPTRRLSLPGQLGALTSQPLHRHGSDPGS
Procedure, shortened: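 Fluorescence at 540 nm emission (480 nm excitation) was recorded kinetically for 2 min at 1-second intervals once the thallium-containing stimulus reached cells previously loaded with FluxOR II dye.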

[15] = target: Cytochrome P450 3A4 (Homo sapiens) (UniProt P08684); assay: Cytochrome P450 Family 3 Subfamily A Member 4 (CYP3A4) small molecule antagonists: luciferase reporter qHTS assay (AID 1671201); also: nearly all actives have a fitted effect of over 50% in size
Chain of UniProt P08684 (P08684 whole entry, looked up): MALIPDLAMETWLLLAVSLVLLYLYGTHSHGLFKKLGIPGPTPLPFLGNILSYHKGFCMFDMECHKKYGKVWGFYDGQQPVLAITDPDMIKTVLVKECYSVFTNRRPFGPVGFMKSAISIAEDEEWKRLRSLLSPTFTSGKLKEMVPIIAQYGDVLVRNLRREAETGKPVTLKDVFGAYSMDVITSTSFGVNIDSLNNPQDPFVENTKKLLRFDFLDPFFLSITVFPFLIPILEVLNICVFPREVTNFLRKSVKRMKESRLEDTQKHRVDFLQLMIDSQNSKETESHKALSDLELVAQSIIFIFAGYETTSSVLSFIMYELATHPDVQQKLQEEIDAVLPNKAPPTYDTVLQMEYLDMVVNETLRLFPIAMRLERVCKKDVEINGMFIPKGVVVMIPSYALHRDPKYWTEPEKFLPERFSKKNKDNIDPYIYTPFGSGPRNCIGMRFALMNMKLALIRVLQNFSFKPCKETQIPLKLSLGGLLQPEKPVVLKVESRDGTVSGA
Procedure, shortened: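 qHTS, 1536-well. CYP3A4 + proluciferin substrate, cpd 10 min RT → NADPH regen 1 h RT → detection reagent 20 min → luminescence (RLU). Ketoconazole positive control.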
Potency is read from the fitted curve at half-maximal effect; tags tell the direction and shape of the fitted curve or compound fluorescence and quenching.

Q: With `COC(=O)[C@H]1[C@H]2C[C@@H]3c4[nH]c5cc(OC)ccc5c4CCN3C[C@H]2C[C@@H](OC(=O)c2cc(OC)c(OC)c(OC)c2)[C@@H]1OC` as the compound, how does the Potency [1] read?
A: inconclusive: 24.5 µM [rising, partial curve] and inconclusive: 17.9 µM [rising, partial curve] and inconclusive: 21.3 µM [rising, partial curve]

Q: And the Potency [2]?
A: inconclusive: 50.1 µM [cytotoxic, partial curve] and active: 39.7 µM

Q: And the Potency [3]?
A: inconclusive: 68.5 µM [activator]

Q: What about the Potency [4] of the same compound?
A: active: 30.6 µM and active: 39.7 µM

Q: What about the Potency [5] of the same compound?
A: inconclusive: 68.5 µM [cytotoxic, single point]

Q: And the Potency [6]?
A: active: 28.2 µM and active: 9.19 µM and inconclusive: 8.71 µM [inhibitor, full curve]

Q: And the Potency [7]?
A: inconclusive: 35.5 µM [inhibitor]

Q: And the Potency [8]?
A: inconclusive: 31.7 µM [inhibitor, partial curve]

Q: Which Potency [1] does the source give for `OCCN(CCO)c1nc(N2CCCCC2)c2nc(N(CCO)CCO)nc(N3CCCCC3)c2n1` here?
A: inconclusive: 21.3 µM [fluorescent, partial curve]

Q: What about the Potency [2] of the same compound?
A: inconclusive: 21.1 µM [rising, partial curve]

Q: And the Potency [4]?
A: inconclusive: 23.7 µM [rising, partial curve]

Q: What about the Potency [5] of the same compound?
A: inconclusive: 23.7 µM [rising, partial curve]

Q: With `C=C1C(=C/C=C2\CCC[C@]3(C)[C@@H]([C@H](C)/C=C/[C@@H](O)C4CC4)CC[C@@H]23)C[C@@H](O)C[C@@H]1O` as the compound, how does the activity, negative = inhibition [1] read?
A: inconclusive: 9.36% [at 35.3 µM]

Q: And the Potency [2]?
A: inconclusive: 33.5 µM [cytotoxic, single point]

Q: What about the Potency [5] of the same compound?
A: inconclusive: 33.5 µM [cytotoxic, single point]

Q: And the Potency [6]?
A: inconclusive: 38.9 µM [inhibitor, partial curve, poor fit]

Q: With `CC[C@@]1(O)C(=O)OCc2c1cc1n(c2=O)Cc2cc3c(CN(C)C)c(O)ccc3nc2-1` as the compound, how does the activity, negative = inhibition [1] read?
A: inconclusive: -3.44% [at 35.3 µM]

Q: What about the Potency [2] of the same compound?
A: inconclusive: 26.6 µM [rising, partial curve]

Q: What about the Potency [4] of the same compound?
A: inconclusive: 29.8 µM [rising, partial curve]

Q: And the Potency [9]?
A: inconclusive: 26.6 µM [activator, partial curve]

Q: And the Potency [10]?
A: inactive

Q: And the Potency [6]?
A: inconclusive: 43.6 µM [inhibitor, single point]

Q: What about the Potency [8] of the same compound?
A: inactive

Q: For `COC(=O)C1=C(C)NC(C)=C(C(=O)OCCCN2CCC(c3ccccc3)(c3ccccc3)CC2)C1c1cccc([N+](=O)[O-])c1` (configuration not stated), which Potency [11] is on record?
A: active: 5.01 µM

Q: With `CN1CCN(C2Cc3ccccc3Sc3ccc(Cl)cc32)CC1` (configuration not stated) as the compound, how does the Potency [11] read?
A: inconclusive: 8.91 µM [activator, partial curve]

Q: What about the Potency [12] of the same compound?
A: active: 31.6 µM

Q: With `Oc1cccc2cc3cccc(O)c3c(O)c12` as the compound, how does the Potency [1] read?
A: inconclusive: 19.6 µM [cytotoxic]

Q: And the Potency [5]?
A: inconclusive: 13.8 µM [cytotoxic, full curve]

Q: What about the Potency [10] of the same compound?
A: inconclusive: 77.4 µM [activator, single point]

Q: What about the Potency [8] of the same compound?
A: inconclusive: 63.6 µM [inhibitor, partial curve]

Q: What does the source list for `C=CC(C)(CCC=C(C)C)OC(C)=O` (configuration not stated)?
A: activity, negative = inhibition [1]: inconclusive: -9.49%; Potency [5]: inconclusive: 24.3 µM [rising, single point]

Q: With `CCOC(=O)/C=C(C)/C=C/C=C(C)/C=C/c1c(C)cc(OC)c(C)c1C` as the compound, how does the activity, negative = inhibition [1] read?
A: inconclusive: -12.9% [at 35.3 µM]

Q: What about the Potency [4] of the same compound?
A: inconclusive: 26.6 µM [cytotoxic, partial curve]

Q: What about the Potency [10] of the same compound?
A: inconclusive: 21.1 µM [activator, partial curve]

Q: And the Potency [6]?
A: inconclusive: 24.5 µM [inhibitor, partial curve]

Q: Which activity, negative = inhibition [1] does the source give for `C=C(C)C(=O)OCCCCCC` here?
A: inconclusive: 4.63%

Q: And the Potency [4]?
A: inconclusive: 43.3 µM [rising, partial curve, poor fit]

Q: What about the Potency [7] of the same compound?
A: inconclusive: 89.4 µM [inhibitor, single point]

Q: And the Potency [13]?
A: inactive

Q: And the Potency [8]?
A: inconclusive: 63.3 µM [inhibitor, partial curve]

Q: Which activity, negative = inhibition [1] does the source give for `COC(=O)C1=C(C)NC(C)=C(C(=O)OCCN(C)Cc2ccccc2)C1c1cccc([N+](=O)[O-])c1` (configuration not stated) here?
A: inconclusive: -3.45% [at 35.3 µM]

Q: What about the Potency [9] of the same compound?
A: inconclusive: 68.2 µM [activator]

Q: What about the Potency [8] of the same compound?
A: inactive

Q: What about the Potency [14] of the same compound?
A: active: 10.9 µM and active: 8.49 µM

Q: With `CCOC(=O)c1nc(C(Cl)(Cl)Cl)n(-c2ccc(Cl)cc2Cl)n1` as the compound, how does the activity, negative = inhibition [1] read?
A: inconclusive: 0.784%

Q: And the Potency [5]?
A: inconclusive: 77 µM [cytotoxic, single point]

Q: Which activity, negative = inhibition [1] does the source give for `Oc1ccc(Oc2ccccc2)cc1` here?
A: inconclusive: 0.775%

Q: What about the Potency [4] of the same compound?
A: inconclusive: 41 µM [cytotoxic, partial curve]

Q: What about the Potency [6] of the same compound?
A: active: 26.8 µM

Q: And the Potency [13]?
A: active: 26.8 µM

Q: What about the Potency [8] of the same compound?
A: inconclusive: 26.8 µM [inhibitor, partial curve]

Q: For `Nc1ccc(Cl)cc1[N+](=O)[O-]`, which activity, negative = inhibition [1] is on record?
A: inconclusive: -6.71%

Q: What about the Potency [4] of the same compound?
A: inconclusive: 60.5 µM [cytotoxic, partial curve]

Q: What about the Potency [5] of the same compound?
A: inconclusive: 60.5 µM [cytotoxic]

Q: And the Potency [6]?
A: inconclusive: 35.2 µM [inhibitor, partial curve]

Q: And the Potency [15]?
A: inconclusive: 70.3 µM [inhibitor, single point]
